98 molecules from PubChem BioAssay AID485344 (National Center for Advancing Translational Sciences (NCATS), 2010) can be followed below.

The whole screen tested about 340,000 compounds, of which about 6,900 (2%) were called active. No stated cut-off is given here; in the data, active means inhibition above about 30%; inactive means below that, where a call was filed. This is a selection; strong and weak results do not stand in their true shares. The source gives no active or inactive call for entries shown without one.

Chain of UniProt P14416 (P14416 whole entry, looked up): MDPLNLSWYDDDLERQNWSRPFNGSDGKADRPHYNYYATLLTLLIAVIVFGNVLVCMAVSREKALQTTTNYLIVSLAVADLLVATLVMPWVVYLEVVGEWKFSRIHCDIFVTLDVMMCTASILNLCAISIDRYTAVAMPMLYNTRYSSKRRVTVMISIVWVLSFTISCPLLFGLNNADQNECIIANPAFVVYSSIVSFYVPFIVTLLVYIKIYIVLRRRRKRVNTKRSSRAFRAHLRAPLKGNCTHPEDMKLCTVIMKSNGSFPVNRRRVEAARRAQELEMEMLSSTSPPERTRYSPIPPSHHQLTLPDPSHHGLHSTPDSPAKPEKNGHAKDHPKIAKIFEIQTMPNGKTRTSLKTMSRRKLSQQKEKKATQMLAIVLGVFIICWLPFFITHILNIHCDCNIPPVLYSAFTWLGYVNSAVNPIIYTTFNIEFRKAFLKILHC

This experiment concerns the target D(2) dopamine receptor (Homo sapiens) (UniProt P14416). The experiment is described as follows: HTS Assay for Allosteric Antagonists of the Human D2 Dopamine Receptor: Primary Screen for Antagonists. Further: 0% is about no effect. The settings on record: HEK293 TREx D2 cells, calcium flux, dopamine EC80; at 10 µM; stronger effect = higher value. Summed up:
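Tetracycline-induced HEK293 TREx cells expressing D2 receptor forced-coupled to calcium signalling, loaded with no-wash calcium dye. Compounds added and calcium flux read 180 s, then dopamine added at EC80 and read a further 180 s.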
Usually inhibition stands for the change of the read-out against control, counted positive when it falls. Regarding `CCCCn1c(NCc2ccc(OC)cc2O)nc2ccccc21`, the inhibition was determined as 3.93%.

Turning to `COc1ccc(C)cc1-n1nnc(-c2nc(-c3ccccc3Cl)no2)c1N`, the inhibition is 10.9%.

Regarding `Cc1ccccc1NS(=O)(=O)c1ccc2[nH]cc(C(=O)N3CCCCC3)c(=O)c2c1`, the inhibition worked out at 14.6%.

Regarding `CCCCn1nc(NC(=O)c2cccc(Cl)c2)c2cc3ccccc3nc21`, the inhibition is -8.5%.

For the molecule `O=C(NCc1ccccc1)c1ccc(CSc2nc3cccnc3n2Cc2cccc(F)c2)cc1`, the inhibition is -16.8%.

With `CCCc1nc2ccccc2n2c(-c3ccccc3)c3c(=O)n(C)c(=O)n(C)c3c12`, the inhibition stood at 7.34%.

As to `Cc1ccccc1CN1C(=O)c2ccccc2Sc2ccc(C(=O)N3CCCC3)cc21`, the inhibition was 4.52%.

For the molecule `CCOc1ccc(CNCc2c(C(=O)O)n(Cc3ccc(C)cc3)c3cc(C)ccc23)cc1`, the inhibition came out at 9.97%.

`Cc1c(Cl)cccc1NC(=O)CN(CCc1ccccc1)S(=O)(=O)c1ccccc1`: the inhibition was found to be 1.46%.

In the case of `Cc1ccccc1Nc1ncnc2c1cnn2C`, the inhibition is -26.9%.

Turning to `CCCCN(CC)CCNC(=O)c1cc2c(=O)[nH]c3ccccc3c2n1C`, the inhibition is -4.79%.

On to `Cc1ccccc1OCC(=O)Nc1ccc(-c2nc3ncccc3o2)cc1`, for which the inhibition is 2.55%.

Turning to `Cc1cccc(C(=O)N2CCc3cc(CNS(=O)(=O)c4ccc(Cl)s4)ccc32)c1`, the inhibition was found to be 5.09%.

In the case of `Cc1ccc(C(=O)Nc2ccc(-c3nc4ccccc4s3)cc2C)cc1C`, the inhibition was -23.4%.

Consider `COc1ccc(N2CC(NC(=O)CCCc3ccccc3)CC2=O)cc1` (stereo not drawn), for which the inhibition was -21.9%.

Regarding `CCOc1cc(CNC(=O)NC2COc3ccc(OC)cc3C2)cc(OCC)c1OCC` (stereo not drawn), the inhibition is -4.28%.

Turning to `COC(=O)c1ccccc1NC(=O)Nc1nnc(N2CCC(C)CC2)s1`, the inhibition came out at 6.94%.

As for `CCOC(=O)c1cc(C)n(CC2CCC(C(=O)Nc3ccc(C)c(F)c3)CC2)c1C` (stereo not drawn), the inhibition was -10.1%.

As to `CN(C)CCCN1c2ccccc2CCc2ccc(Cl)cc21`, the inhibition was active: 89.1%.

As to `c1ccc2cc3[nH]c(CN4CCCCC4)nc3cc2c1`, the inhibition is active: 58.4%.

Regarding `O=C(COC(=O)c1ccc(O)cc1)Nc1ccccc1[N+](=O)[O-]`, the inhibition was active: 38.5%.

Consider `O=C(Cn1c(=O)n(-c2ccccc2Cl)c(=O)c2sc3ccccc3c21)NC1CCCCC1`, for which the inhibition was -16.2%.

With `Cc1ccc(CN2CCN(CC(=O)Nc3ccc(C)c(C)c3)S2(=O)=O)cc1`, the inhibition is 5.64%.

With `Cc1ccccc1-n1nc(CO)c(C(=O)NCc2cccs2)n1`, the inhibition is -9.43%.

In the case of `O=C(CCN1CCN(c2ccccc2)CC1)Nc1cccc(Br)c1`, the inhibition is active: 75.2%.

Take `Cc1ccccc1OC(=O)CSc1nnc(-c2ccc(F)cc2)o1`: the inhibition amounted to 14.6%.

Consider `Cc1c(NC(=O)c2nc3ccccc3nc2N2CCCCC2)cccc1[N+](=O)[O-]`, for which the inhibition is -17.1%.

Regarding `Cc1cccc2c1-c1sc(C(=O)N(C)c3cccc(C(F)(F)F)c3)cc1CO2`, the inhibition is -5.12%.

Consider `Cc1csc2nc(COc3ccccc3NC(=O)c3ccc(C(C)(C)C)cc3)cc(=O)n12`, for which the inhibition is 5.01%.

For the molecule `Cc1cccc(CNC(=O)CCCn2c(=O)c3cccn3c3ccc(F)cc32)c1`, the inhibition was -10.1%.

`CCNC(=O)c1nn(-c2ccccc2C)nc1CO`: the inhibition is -4.86%.

`CC(=O)C1=C(c2ccc(C)c(C)c2)N(C(C)=O)n2c(nnc2-c2ccc(Cl)cc2)S1`: the inhibition was -12.3%.

Turning to `Cc1cc(C(=O)NC2CCCCC2)c2cc(F)ccc2n1`, the inhibition was active: 31.5%.

For the molecule `CCC(=O)C1=C(c2cccc(OC)c2)N(C(=O)CC)n2c(nnc2C2CCCCC2)S1`, the inhibition is -23%.

Consider `Cc1cccc(C)c1OCc1nc2c3c(-c4ccccc4)c(-c4ccccc4)oc3ncn2n1`, for which the inhibition is -6.54%.

For `COc1cccc(NC(=O)C2CCN(c3nn4cc(-c5ccc(F)cc5)nc4s3)CC2)c1`, the inhibition is -11.3%.

In the case of `CCn1cc(C(=O)N2CCN(c3ccc(C(C)=O)cc3)CC2)c2cc(OC)c(OC)cc2c1=O`, the inhibition is -13.4%.

Take `Cc1ccc(NC(=O)Cn2c(=O)oc3cc(S(=O)(=O)NCc4ccccc4)ccc32)cc1`: the inhibition turned out to be 5.03%.

For the molecule `Cc1cccc(CN2CCc3c([nH]c4ccccc34)C2)c1`, the inhibition was active: 56.2%.

Take `Cc1ccc(-c2cc(C(F)(F)F)c(C#N)c(SCC(=O)Nc3ccccc3)n2)cc1`: the inhibition amounted to 0.675%.

For `CCOC(=O)C1CCN(C(=O)c2ccc3c(=O)n4nc(Nc5cc(C)ccc5C)sc4nc3c2)CC1`, the inhibition is -14.6%.

With `Cc1ccc(CNC(=O)c2cc3c(=O)n(Cc4cccnc4)ccc3nc2C)cc1`, the inhibition is -2.62%.

With `CCOc1cccc(C2c3c(-c4cc(C)ccc4O)n[nH]c3C(=O)N2Cc2ccco2)c1` (stereo not drawn), the inhibition was 17.6%.

For the molecule `CCC(C)[C@H]1COCCS(=O)(=O)N1Cc1ccc(C)cc1` (stereo partly drawn), the inhibition is active: 36.6%.

With `COc1ccc(OC)c(CCNC(=O)c2csc3c2CCCCC3)c1`, the inhibition amounted to 7.6%.

Take `Cc1cc(C)cc(NC(=O)CN2C(=O)c3ccccc3Sc3ncccc32)c1`: the inhibition turned out to be 16.2%.

As to `CN1C(C(=O)Nc2ccc(F)cc2F)=CC(c2ccc3c(c2)OCO3)=NS1(=O)=O`, the inhibition was found to be 6.42%.

On to `Cc1cc2nc(-c3ccc(NC(=O)C(C)C)cc3)oc2cc1C`, for which the inhibition is active: 31.7%.

For the molecule `CCCCN(CC)CCCNC(=O)c1cc2c(=O)[nH]c3ccccc3c2s1`, the inhibition was -8.01%.

Turning to `Cc1ccc(CN(Cc2ccco2)C(=O)COc2ccc(C(C)C)cc2)cc1`, the inhibition was 11.1%.

For the molecule `COc1ccc(CNC(=O)c2ccc3c(c2)nc2n3CCOC2)c(OC)c1`, the inhibition is -0.94%.

With `CCOc1ccc(CCNC(=O)CN2N=C(c3ccccc3)CCC2=O)cc1OCC`, the inhibition stood at 3.53%.

For the molecule `Cc1ccc2nc(N(Cc3cccnc3)C(=O)CCS(=O)(=O)c3ccccc3)sc2c1`, the inhibition was -20.5%.

As to `CC(=O)c1ccc(NC(=O)CSc2nc(-c3cccc(F)c3)nc3c2c(=O)n(C)c(=O)n3C)cc1`, the inhibition came out at 1.85%.

On to `CCN1CCN(P2(=O)C=C(c3ccccc3)OC(c3ccccc3)=C2)CC1`, for which the inhibition is active: 84.1%.

Turning to `COc1cc2[nH]c(=O)n(CCCC(=O)N3CCN(c4cccc(C(F)(F)F)c4)CC3)c(=O)c2cc1OC`, the inhibition was -6.76%.

`COc1ccccc1N1CCN(C(=O)CN2C(=O)COc3ccc(S(=O)(=O)N4CCC(C)CC4)cc32)CC1`: the inhibition was -2.51%.

Turning to `Cc1ccc(NC(=O)C2CCN(c3cc(C)nc4c(-c5ccc(Cl)cc5)c(C)nn34)CC2)c(C)c1`, the inhibition turned out to be 6.63%.

For the molecule `COc1ccc(C(=O)CSc2c(C(C)C)cnc3c2c(=O)n(C)c(=O)n3C)cc1`, the inhibition was -2.37%.

Turning to `CCOc1ccc(NC(=O)CSc2nc3c(oc4ccccc43)c(=O)n2CCOC)cc1`, the inhibition was -2.7%.

For `Cn1ncc2nc(SCC(=O)Nc3ccc(Br)cc3F)n(Cc3ccccc3)c(=O)c21`, the inhibition was 3.22%.

Take `Cc1ccn2c(=O)cc(COc3ccc(NC(=O)c4ccccc4F)cc3)nc2c1`: the inhibition was -1.86%.

On to `Cc1ccc(-n2nnc(C(=O)Nc3cc(F)ccc3F)c2C)cc1F`, for which the inhibition turned out to be 13%.

Regarding `Cc1ccc(C)c(OCC(=O)NNC(=O)CCN2CCN(c3ccccc3)CC2)c1`, the inhibition is active: 80%.

Regarding `O=C(c1ccccc1)N1c2ncnn2C2(CCCCC2)[C@@H]2CCCC[C@@H]21`, the inhibition came out at 19.5%.

For the molecule `COc1ccccc1NC(=O)c1sc2nc3c(cc2c1N)CCCCCC3`, the inhibition amounted to 16.1%.

Turning to `Cc1ccc2c(c1)C(c1ccc(F)cc1)N(C(=O)c1ccc(OC(C)C)cc1)CC(=O)N2` (stereo not drawn), the inhibition was -2.03%.

Regarding `Cc1ccccc1C(=O)Nc1cc(-c2ccc(Cl)cc2)nn1-c1ccccc1`, the inhibition was -10.6%.

Regarding `Cc1nn(-c2ccc(N3CCOCC3)nn2)c(C)c1CCC(=O)NCc1ccc(F)cc1`, the inhibition worked out at 14.2%.

On to `Cc1ccc2oc3c(c(=O)c2c1)C1(C(=O)N(C)c2ccccc21)N(CCCO)C3=O` (stereo not drawn), for which the inhibition is -2.59%.

Regarding `CSc1cccc(NC(=O)C2CCN(C(=O)c3cnn(-c4ccccc4)c3-n3cccc3)CC2)c1`, the inhibition is -3.52%.

`CCc1ccc(-n2c(=O)c3c4c(sc3n(CC(=O)c3ccc(Cl)cc3)c2=O)CCC4)cc1`: the inhibition was -8.73%.

Regarding `COc1ccc2oc(-c3ccc(C)c(NC(=O)COc4cc(C)cc(C)c4)c3)nc2c1`, the inhibition worked out at 8.75%.

Regarding `Cc1ccc(Cl)cc1NC(=O)C(=O)NCC(c1cccnc1)N1CCc2ccccc21` (stereo not drawn), the inhibition was -4.66%.

Regarding `O=C(CCS(=O)(=O)c1cccc2nsnc12)Nc1ccc(F)cc1`, the inhibition worked out at 6.32%.

On to `O=C(Nc1ccn(-c2ccccc2)n1)c1ccc(Cl)cc1`, for which the inhibition is active: 63.3%.

With `Cc1ccc(NC(=O)C(Cc2c[nH]c3ccccc23)NC(=O)OCC(C)C)cc1` (stereo not drawn), the inhibition stood at 6.95%.

Consider `COc1cc(NC(=O)c2nc(-c3ccncc3)no2)cc(OC)c1OC`, for which the inhibition was -6.76%.

Regarding `COc1ccc(/C=C\C(=O)NC2CC(=O)N(c3ccccc3)C2)cc1OC` (stereo not drawn), the inhibition was -18.8%.

Turning to `COC(=O)c1nc2n(n1)C(c1cc(OC)ccc1OC)C(C(=O)Nc1ccc(C)cc1C)=C(C)N2` (stereo not drawn), the inhibition amounted to 6.85%.

As to `Cc1ccc(CN(C(=O)COc2c(C)cccc2C)C2CCS(=O)(=O)C2)o1` (stereo not drawn), the inhibition came out at 1.07%.

In the case of `CC(C)(C)C(=O)NCCc1csc2nc(-c3ccc(F)cc3)nn12`, the inhibition is -5.13%.

On to `Cc1ccc(Cl)cc1N1CCN(CCNC(=O)Nc2ccccc2Cl)CC1`, for which the inhibition came out at 0.336%.

As for `COc1ccc2nc(NC(=O)c3nc(S(=O)(=O)Cc4cccc(C)c4)ncc3Cl)sc2c1`, the inhibition was -3.81%.

As for `COc1ccc(NC(=O)c2cnc(SC)nc2C)c(OC)c1`, the inhibition is active: 37.8%.

For `CCC1CCCCN1CCCNC(=O)CN1C(=O)CSc2ccc(S(=O)(=O)N3CCOCC3)cc21` (stereo not drawn), the inhibition was found to be 17.7%.

In the case of `CCC(C)(C)NC(=O)C(c1cccn1C)N(C(=O)Cn1nnc2ccccc21)c1ccc(OC)cc1OC` (stereo not drawn), the inhibition was active: 30.5%.

Turning to `CCOc1ccccc1NC(=O)Cn1ccn(Cc2ccc(C)cc2)c(=O)c1=O`, the inhibition turned out to be 25.5%.

Take `CCOC(=O)Cn1nc(C)c(NC(=O)COc2ccc(Cl)cc2C)c1C`: the inhibition is -1.41%.

As to `Cc1ccc(-c2cc(C(=O)Oc3ccccc3)c3cc(C)ccc3n2)cc1`, the inhibition was determined as 2.34%.

Regarding `COc1ccc2c(c1)c1c(c(=O)n(-c3cccc(Cl)c3)c(=O)n1CC(=O)N1CCCC1)n2C`, the inhibition is -10.1%.

Take `COc1ccc(CCNC(=O)NC2CCCCC2)cc1`: the inhibition is active: 30.8%.

For `COCCCNC(=O)CSc1nc2c(sc3ccccc32)c(=O)n1CCCC(=O)NCCOC`, the inhibition is 8.83%.

Turning to `Fc1ccccc1Cn1c(-c2ccccc2)nc2ccccc21`, the inhibition was determined as 11%.

`O=C(c1cccs1)N1CCN(Cc2ccc3c(c2)OCO3)CC1`: the inhibition was active: 86.6%.

Take `CC(=O)c1ccc(NC(=O)COCc2cc(-c3ccco3)on2)cc1`: the inhibition was -2.05%.

For `COc1cccc(N2CC(NC(=O)c3cccc(OC)c3OC)CC2=O)c1` (stereo not drawn), the inhibition was 27.9%.

Regarding `Cc1ccccc1OCc1nnc(SCc2cc(=O)c3cccc(F)c3[nH]2)n1C`, the inhibition was -26.1%.
